B1: 52133985_52137179_1883_CDS_ENSG00000112118_ENST00000229854|human|control|control (ssRNA)
RNA: GGGAGUUCUACAGUCCGACGAUCAAUCAGAGUUUCCAGUGUUCGGGCUGUAACUGGAGAUGUCCUGGCGGUGUCUGAGCUCAUGCUAUCCUGGCUGCGCAGGCGUGAAUACUCUUCUGCAAUGUAGGUGGCCGACUCCUGUGUCAACAGAGGAUUGAGCAUCA
B2: chr22:19452774:19452775:-_ENSG00000070010_ENST00000399523|hu_hu|hu_hu_hu_mus_False|38_88 (ssRNA)
RNA: GGGAGUUCUACAGUCCGACGAUCCUUCUCAUUGUAGUUGAUAGCAAUCACAUCCCCAGUCGUCAGACAGGCGAAGUUUCUCAAUGCAUUUUCUAAUACGGCUUUGGGGUUGGUAAUAUCCAGGAAGUCUGGGCUCUGAGGCUGCAACAGAGGAUUGAGCAUCA
B3: 94228602_94229594_564_CDS_ENSMUSG00000041912_ENSMUST00000166032|mouse|control|control (ssRNA)
RNA: GGGAGUUCUACAGUCCGACGAUCUGAGAUUUUUAUAAGUCGUGAGAGUAGUAACGUUCCCUCUGAUUCUUUGUCGCAAGUGAUUUUGGCUCCAGAAGCCUUACAGAUAGAACGAAUCGUCUCACCGCCUCUCCCUAUGAUUCUCAACAGAGGAUUGAGCAUCA
B4: chr1:171882756:171882757:-_ENSMUSG00000026675_ENSMUST00000027989|mus_mus|FALSE|FALSE (ssRNA)
RNA: GGGAGUUCUACAGUCCGACGAUCGAGGAAAAACAAGAAGUAGAAGUCCUACCCAGUGGCAUUGCCCCUCCGUGCUGAGACUAAAAGAAGCUUCAGGCUGUACUGUGUCCCCAUCACACAAGUCAAAACUACUGGGCUCUAGGACAACAGAGGAUUGAGCAUCA
B5: chr3:129744051:129744052:-_ENSMUSG00000001052_ENSMUST00000001079|mus_hu|FALSE|FALSE (ssRNA)
RNA: GGGAGUUCUACAGUCCGACGAUCGCUGGCAGAGUACAUGGCUGGACUAUUGUAGUGAUUCACAAAAGAGGAGUAUGGUUGGGAGGCACUCGUAUGCAAAUGGGAUGCUGACGAUGCAGCACCUUGGAAAGAUCCUAGAGUGGACAACAGAGGAUUGAGCAUCA
B6: 69662632_69662752_1122_3pUTR_ENSMUSG00000042155_ENSMUST00000053087|mouse|control|control (ssRNA)
RNA: GGGAGUUCUACAGUCCGACGAUCGCUCCCUGAAUCCAAACAUUUGUCAAAGGGUCCCAUAUGUGGACCUCUGAUAAAGGAUGCCAGUAGUAGCCUCCAAUGAUAUACAUGGUGGCUGUGGACCUCUGGGAAAUCUCUUUAUGCCAACAGAGGAUUGAGCAUCA
B7: chrX:98860016:98860017:+_ENSMUSG00000034160_ENSMUST00000044475|mus_hu|motif|central (ssRNA)
RNA: GGGAGUUCUACAGUCCGACGAUCCUCCUUAUAAUGCAUCAGAGCUUCCUGCAGUUUUCCCUGCUGCUGCAGUACACUUGCGGAAUUUGAAUGGGCAGCAGCAAACUCUGGGAAGACUUCUAAUGCUUUACGAUACAAGCGAACCAACAGAGGAUUGAGCAUCA
B8: 100340318_100340781_1494_3pUTR_ENSG00000162688_ENST00000361915|human|control|control (ssRNA)
RNA: GGGAGUUCUACAGUCCGACGAUCUUCUCUGAAUUUAAUUCCUCCAUUCUUUUAUGAAACCAAUUACAGCAUUCUUCAAUUGCUGCUGGCCCCUUGUCAUGUGGUAUGAAAGUCGUUAGUGCAAUGUUCAUAUCUACAGUACAGCAACAGAGGAUUGAGCAUCA
B9: chr7:63234579:63234580:-_ENSMUSG00000047037_ENSMUST00000052204|mus_mus|FALSE|FALSE (ssRNA)
RNA: GGGAGUUCUACAGUCCGACGAUCCCAACCAUCGGGAGCUCUGUGCUGCAGAGGUCUGGACCUCACCCUGGUGCAAAGCCUAUUGUCCACUGGAUUAUUAGUUCACAGGCAAUGCUCACCGAGAGUCUCUUCUACGUGACAUGUCAACAGAGGAUUGAGCAUCA
B10: chr7:65705475:65705476:+_ENSG00000169902_ENST00000304842|hu_hu|hu_hu_hu_mus_True|48_98 (ssRNA)
RNA: GGGAGUUCUACAGUCCGACGAUCUCUAUUCGGUGAUGGCAUUCCAUGGCAUGCUGGCCCAGGUAAAACACGGUCACAGAACUAAUCACCAGACAUGCCAAGAGUAAGUUCUGCUUCAGCUUCCCAACCAUCUUGAUGUGGUUACAACAGAGGAUUGAGCAUCA
B11: chr18:67943652:67943653:+_ENSMUSG00000079614_ENSMUST00000025421|mus_mus|motif|central (ssRNA)
RNA: GGGAGUUCUACAGUCCGACGAUCAGUUGUCCUCUUCACCCAGUGACUCUGUCCUCGAAGUUUAUCGUUUGAUUCUCCCACGGUUUCUUCCCAUACAGCUGCUGUUCGGUCAAAAGAACAGGAAGCCAAAACUUGUCCAAAUUCCAACAGAGGAUUGAGCAUCA
B12: chr4:141471443:141471444:+_ENSG00000179387_ENST00000323570|hu_hu|FALSE|FALSE (ssRNA)
RNA: GGGAGUUCUACAGUCCGACGAUCAAGUGCUACAUUACAAUCCAGUAAAAGUCCUUUAAUCUUUUCAUGAAACUUCUCUCUAUACAAAUUGAAAUACAUAAUGCUUUCUGGUUCUUCUUCAAACCAAAACUUGUCAAAUUCAUACAACAGAGGAUUGAGCAUCA
B13: chr4:144465060:144465061:+_ENSG00000153147_ENST00000283131|hu_hu|FALSE|FALSE (ssRNA)
RNA: GGGAGUUCUACAGUCCGACGAUCAUAGUCUUCUCCUUCGAAGUUAUAAACACUUGACUCUGUAUCCAUUGUAAAGUUUCUAAGUGAACUUUCGCCCAUCUUGGAGAGCUUUUCAUUCAUCUCUGCAGUCUUCUUUGCACCUCUCAACAGAGGAUUGAGCAUCA
B14: 70595676_70597887_2548_CDS_ENSG00000189091_ENST00000302516|human|control|control (ssRNA)
RNA: GGGAGUUCUACAGUCCGACGAUCGAUAAUAAGGUUGUUACUCUCAGGGUGGAUGACAAAUUUCCUGGGUGUGUACUGCAGUGGGAAGGCUACUUGAUUGAAGACAGCACCGAGCUUCUCUAAUGCCAAAAUCCGUAGGGUGUUCAACAGAGGAUUGAGCAUCA
B15: 187367266_187368830_773_CDS_ENSG00000065548_ENST00000337859|human|control|control (ssRNA)
RNA: GGGAGUUCUACAGUCCGACGAUCACCCCCUCCAGGGCAUACCCAAAACCAGCCAUACUUGUUGUUUUCAAUAGCUUCCAGGAAAUGCUUGCACACUAUUUGAGUUUUUGGUUUUUUCUUUUCCGCCUCACCGUGCUUCUUGUUCAACAGAGGAUUGAGCAUCA
B16: chr16:83842930:83842931:+_ENSG00000230989_ENST00000433866|hu_hu|FALSE|FALSE (ssRNA)
RNA: GGGAGUUCUACAGUCCGACGAUCUUCUUCCACCCCAGCCUGUGUCAUGAGGUCCGCGAUAUUCUUUUCCAGAUCAUCAAUGCGACUACUCAUAUCAUCAAUUCUCCCAAUGAUCUGGUCAGACAUGGUCUGAAAUUUAUCUUGCAACAGAGGAUUGAGCAUCA
B17: chr16:94690093:94690094:+_ENSMUSG00000040785_ENSMUST00000117648|mus_hu|mus_mus_mus_hu_True|8_68 (ssRNA)
RNA: GGGAGUUCUACAGUCCGACGAUCGGGCUGGGAUGACGGACACACAGCCUCGAUUCCAGGGGGAAAAAAAAAUAGCCGAUACUAAUUAAAAAGUGUUAAUGAUUUUUGAAAAUCAGAUUACAUCUAUUUGAAUCAUAAAGCAAACAACAGAGGAUUGAGCAUCA
B18: chr9:15127005:15127006:-_ENSMUSG00000046111_ENSMUST00000161132|mus_hu|FALSE|FALSE (ssRNA)
RNA: GGGAGUUCUACAGUCCGACGAUCUGGUAUAGAGCUCUGUAAUGAAAAUGAUCCAGAACUUGCAAAAAGCUCUGAUUCUCCUAGUUGAGAUAGUUUUUUGGUGAUUUUUGGAAUGUCUGUUUCAGCUGAAUUCUCAAAAUAUUUCAACAGAGGAUUGAGCAUCA
B19: chr5:37680062:37680063:+_ENSMUSG00000029121_ENSMUST00000031004|mus_hu|mus_mus_mus_hu_False|28_78 (ssRNA)
RNA: GGGAGUUCUACAGUCCGACGAUCUUUGGGUGUAGCUGGUACCUCGUACACAGGACCAUCGUACAUGCCCCUGGAAACCCCUUGCAAUCCAAAAACCUUAUUCCUGAUCCUGACACGCUGGUACAGGUGCUCCGGGAACGCCUUCAACAGAGGAUUGAGCAUCA
B20: chr14:76906579:76906580:+_ENSMUSG00000022010_ENSMUST00000022587|mus_hu|FALSE|FALSE (ssRNA)
RNA: GGGAGUUCUACAGUCCGACGAUCUGGAAAAGAGAUAAUGGCAUAUGUCAGUCUCACGUCUCUUUCGCAGCGAGCAAUGAAAUGGGUGACUGUGGAGGCAGAUUCUCCCUAGCACAUCUUCUCCGUCUGUUCAGUUCACACGCACAACAGAGGAUUGAGCAUCA
B21: 72050788_72050908_1190_CDS_ENSG00000133858_ENST00000378743|human|control|control (ssRNA)
RNA: GGGAGUUCUACAGUCCGACGAUCCUGAAAAGUUUUGACUUGUGUUUUCUCCUCAGGAGCUACUUCUUUACUUGAAUCCUUUGUAAUACUGACAUUAUCAGUGCUAGUUUGGUCCUCGAAGUUCAAUGUUUUAGGAUCUUCCUGCAACAGAGGAUUGAGCAUCA
B22: chr14:62205016:62205017:+_ENSG00000100644_ENST00000337138|hu_mus|motif|central (ssRNA)
RNA: GGGAGUUCUACAGUCCGACGAUCCUGAUCUUGAAUCUGGGGCAUGGUAAAAGAAAGUCCCAGUGACUCUGGACUUGAUUCGGAUUUUAAUGCAACCUCUUGAUUCAGUGCAGGAUCAGCACUACUUCGAAGUGGCUUUGGAGUCAACAGAGGAUUGAGCAUCA

The other results are listed elsewhere or left out.

The test concerns the target T1, UNK ZnF1-3 (human, UniProt Q9C0B0 31-174).
T1 sequence: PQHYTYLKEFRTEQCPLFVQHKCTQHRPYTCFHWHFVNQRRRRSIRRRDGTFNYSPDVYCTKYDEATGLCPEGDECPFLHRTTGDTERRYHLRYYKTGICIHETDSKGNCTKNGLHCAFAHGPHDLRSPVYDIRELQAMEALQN
In words: nsRBNS (natural sequence RNA bind-n-seq); RBNS binding buffer (assumed for nsRBNS): 25 mM Tris pH 7.5, 150 mM KCl, 3 mM MgCl2, 0.01% Triton X-100, 500 ug/ml BSA, 20 U/ml SUPERase-In, 4 C; UNK is unkempt and MSI1 is Musashi-1; names of the RNAs are library labels; protein concentration not given here; high values mean tight binding.
Molecule B1 came in with a binding signal of 0.738 enrichment R.

B2: the binding signal came out at 0.911 enrichment R.

Regarding B3, the binding signal was determined as 0.614 enrichment R.

On to B4, for which the binding signal was 0.945 enrichment R.

B5 had a binding signal of 1.31 enrichment R.

With B6, the binding signal stood at 0.871 enrichment R.

Molecule B7 yielded a binding signal of 0.448 enrichment R.

Molecule B8 showed a binding signal of 0.607 enrichment R.

In turn, B9 registered a binding signal of 1.02 enrichment R.

The molecule B10 gave a binding signal of 0.491 enrichment R.

In the case of B11, the binding signal amounted to 1.03 enrichment R.

Take B12: the binding signal was determined as 0.75 enrichment R.

B13 returned a binding signal of 0.387 enrichment R.

Regarding B14, the binding signal was 0.942 enrichment R.

In turn, B15 displayed a binding signal of 0.719 enrichment R.

For the molecule B16, the binding signal is 0.568 enrichment R.

As to B17, the binding signal was found to be 0.945 enrichment R.

B18 had a binding signal of 0.77 enrichment R.

Molecule B19 came in with a binding signal of 0.701 enrichment R.

Take B20: the binding signal is 0.961 enrichment R.

B21 came in with a binding signal of 0.391 enrichment R.

As to B22, the binding signal worked out at 0.83 enrichment R.

Values taken from article PMC12136788.
